This is an account of results in the supplement of paper PMC4967469.

Common to all, as to assay: Viability of human cancer cell lines after 72 h of drug (GDSC screen)
Compound in one assay: CCn1c(-c2nonc2N)nc2c(C#CC(C)(C)O)ncc(OC[C@H]3CCCNC3)c21 [GSK690693]
The note with it: top dose 10.24 µM; top dose inferred. The protocol: (§1)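 Human cancer cell lines in 384-well plates, medium with 10% serum, drug for 72 h over a 256-fold dose range (nine 2-fold or five 4-fold steps up to the top dose). Adherent lines were fixed and stained with the nucleic acid dye Syto60, suspension lines read with resazurin; signal relative to control wells, capped at 0 and 100%. One two-parameter sigmoid per drug and line, fitted in a mixed model over all curves with the slope shared within a line.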

Compound in the next assay: COc1cc2c(NC3CCN(C(C)C)CC3)nc(C3CCCCC3)nc2cc1OCCCN1CCCC1 [UNC0638]
The protocol:
as §1

Compound in a further assay: Cc1cccc(-c2[nH]c(C(C)(C)C)nc2-c2ccc3c(c2)OCO3)n1 [SB-505124]
The following applies: top dose 10 µM; top dose inferred. Here is the method: as §1

Compound in the next assay: Oc1cccc(-c2nc(N3CCOCC3)c3oc4ncccc4c3n2)c1 [PI-103]
The following applies: top dose 10.24 µM. The protocol:
as §1

[1] abbreviates: top dose 20 µM, screen: GDSC drug entry 1236, top dose inferred.
The mark [2] stands for this setting: top dose 40 µM, screen: GDSC drug entry 245.

The IC50 comes from the fitted curve, where viability falls to half of the control; a limit (>, <) means that the fit lies beyond the doses tested. For AUC the same curve is integrated over the 256-fold range of doses and scaled to a fraction; it is 1 without any effect and falls as sensitivity rises. For some of these results: Where the top dose is marked as inferred, it was derived from the fitted curves, not read from the paper. For some of these results: Where an entry number is given, a second screen of the drug exists; the two often differ.

One may read the IC50 as the concentration needed to halve the response being measured.

For the cell line PL18 (pancreas, adherent), the AUC in the assay with GSK690693 was 0.988; with UNC0638 (setting [1]) it was 0.633; in the assay with UNC0638 (setting [2]) it was 0.889; with SB-505124, 0.987; with PI-103 it was 0.697. The 50% inhibitory concentration (IC50) with GSK690693 is > 10.2 µM; with UNC0638 (setting [1]) it was 2.9 µM; with UNC0638 (setting [2]) it was > 40 µM; with SB-505124, > 10 µM; with PI-103, 2.27 µM.

Take RD (rhabdomyosarcoma, adherent): the AUC in the assay with GSK690693 is 0.965; in the assay with UNC0638 (setting [1]), 0.959; with UNC0638 (setting [2]), 0.843; with SB-505124, 0.982; in the assay with PI-103, 0.347. Besides, the 50% inhibitory concentration (IC50) with GSK690693 is > 10.2 µM; with UNC0638 (setting [1]), > 20 µM; with UNC0638 (setting [2]), 32.5 µM; with SB-505124, > 10 µM; with PI-103, 0.231 µM.

Regarding RT-112 (bladder, adherent), the AUC was determined as 0.908 in the assay with GSK690693; 0.819 with UNC0638 (setting [1]); 0.87 in the assay with UNC0638 (setting [2]); 0.983 with SB-505124; 0.368 with PI-103. The 50% inhibitory concentration (IC50) with GSK690693 is > 10.2 µM; in the assay with UNC0638 (setting [1]) it was 12.6 µM; with UNC0638 (setting [2]), > 40 µM; with SB-505124, > 10 µM; with PI-103, 0.269 µM.

SN12C (kidney, adherent): the AUC is 0.986 with GSK690693; 0.954 with UNC0638 (setting [1]); 0.979 in the assay with UNC0638 (setting [2]); 0.975 with SB-505124; 0.924 in the assay with PI-103. Further, the concentration for half-maximal inhibition (IC50) with GSK690693 is > 10.2 µM; in the assay with UNC0638 (setting [1]) it was > 20 µM; in the assay with UNC0638 (setting [2]), > 40 µM; with SB-505124, > 10 µM; in the assay with PI-103 it was > 10.2 µM.

For SNU-398 (liver, adherent), the AUC was 0.983 with GSK690693; 0.748 with UNC0638 (setting [1]); 0.655 with UNC0638 (setting [2]); 0.953 in the assay with SB-505124; 0.551 in the assay with PI-103. In addition, the IC50 was > 10.2 µM in the assay with GSK690693; 6.64 µM with UNC0638 (setting [1]); 6.88 µM with UNC0638 (setting [2]); > 10 µM with SB-505124; 0.889 µM in the assay with PI-103.

Take SNU-1040 (large intestine, adherent): the AUC with GSK690693 came out at 0.633; in the assay with UNC0638 (setting [1]) it was 0.921; in the assay with UNC0638 (setting [2]) it was 0.76; with SB-505124, 0.972; with PI-103, 0.646. Besides, the IC50 with GSK690693 is 1.7 µM; with UNC0638 (setting [1]), > 20 µM; with UNC0638 (setting [2]), 18.7 µM; with SB-505124, > 10 µM; with PI-103, 1.87 µM.

In the case of SW156 (kidney, adherent), the AUC was 0.922 with GSK690693; 0.979 in the assay with UNC0638 (setting [1]); 0.938 with UNC0638 (setting [2]); 0.914 with SB-505124; 0.934 in the assay with PI-103. Further, the IC50 with GSK690693 is > 10.2 µM; with UNC0638 (setting [1]) it was > 20 µM; with UNC0638 (setting [2]), > 40 µM; in the assay with SB-505124, > 10 µM; with PI-103, > 10.2 µM.

Consider SW837 (large intestine, adherent), for which the AUC with GSK690693 was determined as 0.979; with UNC0638 (setting [1]), 0.961; in the assay with UNC0638 (setting [2]), 0.888; in the assay with SB-505124, 0.969; in the assay with PI-103, 0.745. Moreover, the concentration for half-maximal inhibition (IC50) was > 10.2 µM with GSK690693; > 20 µM in the assay with UNC0638 (setting [1]); > 40 µM in the assay with UNC0638 (setting [2]); > 10 µM with SB-505124; 4.13 µM in the assay with PI-103.

Turning to SW1088 (glioma, adherent), the AUC was found to be 0.943 in the assay with GSK690693; 0.904 with UNC0638 (setting [1]); 0.915 in the assay with UNC0638 (setting [2]); 0.943 in the assay with SB-505124; 0.791 in the assay with PI-103. Also, the concentration for half-maximal inhibition (IC50) with GSK690693 was > 10.2 µM; with UNC0638 (setting [1]), > 20 µM; with UNC0638 (setting [2]) it was > 40 µM; with SB-505124, > 10 µM; with PI-103, 6.2 µM.

In the case of SW1116 (large intestine, adherent), the AUC with GSK690693 is 0.984; with UNC0638 (setting [1]), 0.975; in the assay with UNC0638 (setting [2]), 0.949; with SB-505124, 0.982; with PI-103 it was 0.966. The IC50 is > 10.2 µM in the assay with GSK690693; > 20 µM in the assay with UNC0638 (setting [1]); > 40 µM in the assay with UNC0638 (setting [2]); > 10 µM with SB-505124; > 10.2 µM with PI-103.

Consider SW1463 (large intestine, adherent), for which the AUC in the assay with GSK690693 came out at 0.978; with UNC0638 (setting [1]) it was 0.969; with UNC0638 (setting [2]) it was 0.974; with SB-505124, 0.975; with PI-103, 0.968. Besides, the 50% inhibitory concentration (IC50) in the assay with GSK690693 was > 10.2 µM; in the assay with UNC0638 (setting [1]) it was > 20 µM; with UNC0638 (setting [2]), > 40 µM; with SB-505124 it was > 10 µM; in the assay with PI-103 it was > 10.2 µM.

Consider T-24 (bladder, adherent), for which the AUC amounted to 0.98 with GSK690693; 0.987 with UNC0638 (setting [1]); 0.754 in the assay with UNC0638 (setting [2]); 0.878 with SB-505124; 0.842 with PI-103. The 50% inhibitory concentration (IC50) is > 10.2 µM in the assay with GSK690693; > 20 µM in the assay with UNC0638 (setting [1]); 13 µM in the assay with UNC0638 (setting [2]); 9.36 µM with SB-505124; 6.69 µM with PI-103.

As to U-2-OS (osteosarcoma, adherent), the AUC in the assay with GSK690693 was 0.976; with UNC0638 (setting [1]), 0.777; with UNC0638 (setting [2]), 0.855; with SB-505124, 0.963; with PI-103, 0.921. In addition, the concentration for half-maximal inhibition (IC50) with GSK690693 was > 10.2 µM; with UNC0638 (setting [1]) it was 8.75 µM; with UNC0638 (setting [2]) it was 36.4 µM; with SB-505124, > 10 µM; with PI-103, > 10.2 µM.
